{"source": "the antibiotic and cytotoxicity screens of Wong et al. (2023)", "note": "The other results are listed elsewhere or left out."}
{"tested_on": "HSkMC (human skeletal muscle cells)", "experiment": "cytotoxicity call (relative viability < 0.9)", "settings": "10 µM"}
{"compound": "COC(=O)C1=C(C)NC(C)=C(C(=O)OCC(C)C)C1c1ccccc1[N+](=O)[O-]", "note": "(centres undefined)", "cytotoxicity call": "inactive"}
{"compound": "Cc1noc(C)c1S(=O)(=O)N(C)C[C@H]1Oc2ccc(NS(=O)(=O)c3ccc(F)cc3)cc2CC(=O)N([C@H](C)CO)C[C@H]1C", "cytotoxicity call": "inactive"}
{"compound": "C[C@@H]1CN([C@@H](C)CO)C(=O)Cc2cc(NC(=O)Nc3ccc(F)cc3)ccc2O[C@@H]1CN(C)Cc1ccc(Cl)c(Cl)c1", "cytotoxicity call": "active"}
{"compound": "CC(C)NC(=O)N(C)C[C@H]1Oc2ccc(NS(=O)(=O)c3ccc(Cl)cc3)cc2C(=O)N([C@@H](C)CO)C[C@H]1C", "cytotoxicity call": "inactive"}
{"compound": "C[C@@H]1CN([C@H](C)CO)S(=O)(=O)c2ccc(-c3cncnc3)cc2O[C@@H]1CN(C)C(=O)C1CCCCC1", "cytotoxicity call": "inactive"}
{"compound": "NCCCCCCNC(=O)[C@@H]1C[C@@H]2C(=O)N[C@@H](CCCCN)C(=O)N2[C@@H]1c1cccc(OCCO)c1", "cytotoxicity call": "inactive"}
{"compound": "CC(C)CNC(=O)[C@@]1(C)c2ccccc2C(=O)N(Cc2cc(C(F)(F)F)cc(C(F)(F)F)c2)[C@H]1c1ccc(CO)cc1", "cytotoxicity call": "inactive"}
{"compound": "Cc1ccc(S(=O)(=O)Nc2ccc3c(c2)C(=O)N([C@@H](C)CO)C[C@@H](C)[C@@H](CN(C)C(=O)Cc2ccccc2)OCCCC[C@H](C)O3)cc1", "cytotoxicity call": "inactive"}
{"compound": "OC[C@H]1O[C@H]2O[C@@H]3[C@@H](O)[C@H](O)[C@H](O[C@@H]4[C@@H](O)[C@H](O)[C@H](O[C@@H]5[C@@H](O)[C@H](O)[C@H](O[C@@H]6[C@@H](O)[C@H](O)[C@H](O[C@@H]7[C@@H](O)[C@H](O)[C@H](O[C@@H]8[C@@H](O)[C@H](O)[C@H](O[C@@H]1[C@@H](O)[C@@H]2O)O[C@@H]8CO)O[C@@H]7CO)O[C@@H]6CO)O[C@@H]5CO)O[C@@H]4CO)O[C@@H]3CO", "cytotoxicity call": "inactive"}
{"compound": "C[C@@H]1CN([C@@H](C)CO)C(=O)c2cccc(NS(C)(=O)=O)c2O[C@@H]1CN(C)Cc1ccc2c(c1)OCO2", "cytotoxicity call": "inactive"}
{"compound": "COc1cccc(NC(=O)N[C@@H]2CC[C@H](CC(=O)N3CCOCC3)O[C@H]2CO)c1", "cytotoxicity call": "inactive"}
{"compound": "COCCNC(=O)C[C@@H]1CC[C@H]2[C@H](COc3ccc(NC(=O)Nc4cccc(F)c4)cc3C(=O)N2C)O1", "cytotoxicity call": "inactive"}
{"compound": "Cc1ccc(S(=O)(=O)Nc2ccc3c(c2)C(=O)N([C@@H](C)CO)C[C@@H](C)[C@@H](CN(C)S(=O)(=O)c2ccc(Cl)cc2)OCCCC[C@H](C)O3)cc1", "cytotoxicity call": "inactive"}
{"compound": "C[C@@H]1CCCCO[C@H](CN(C)C(=O)Nc2ccccc2)[C@@H](C)CN([C@H](C)CO)C(=O)c2cc(NC(=O)Nc3ccc(F)cc3)ccc2O1", "cytotoxicity call": "inactive"}
{"compound": "C[C@H](NC(=O)N(C)C[C@H]1OCc2ccccc2-c2ccccc2C(=O)N([C@H](C)CO)C[C@H]1C)c1ccccc1", "cytotoxicity call": "inactive"}
{"compound": "O=C(O)CSCC(=O)NC1CCSC1=O", "note": "(centres undefined)", "cytotoxicity call": "inactive"}
{"compound": "C[C@@H]1CCCCO[C@H](CN(C)C)[C@H](C)CN([C@H](C)CO)C(=O)c2cc(NC(=O)Nc3cccc4ccccc34)ccc2O1", "cytotoxicity call": "inactive"}
{"compound": "CC(=O)SC1CC2=CC(=O)CCC2(C)C2CCC3(C)C(CCC34CCC(=O)O4)C12", "note": "(centres undefined)", "cytotoxicity call": "inactive"}
{"compound": "CN(Cc1ccccc1)C[C@H]1C[C@H](c2ccccc2)O[C@H](c2ccc(NC(=O)CCCCCCC(=O)O)cc2)O1", "cytotoxicity call": "inactive"}
{"compound": "C[C@@H]1CCCCO[C@H](CN(C)Cc2ccc(Cl)c(Cl)c2)[C@@H](C)CN([C@@H](C)CO)C(=O)c2cc(NS(=O)(=O)c3ccc(F)cc3)ccc2O1", "cytotoxicity call": "active"}
{"compound": "C[C@@H]1CN([C@@H](C)CO)C(=O)c2cc(NS(=O)(=O)c3cccs3)ccc2O[C@@H](C)CCCCO[C@H]1CN(C)CC1CCCCC1", "cytotoxicity call": "inactive"}
{"compound": "Cc1c2oc3c(C)ccc(C(=O)N[C@@H]4C(=O)N[C@@H](C(C)C)C(=O)N5CCC[C@H]5C(=O)N(C)CC(=O)N(C)[C@@H](C(C)C)C(=O)O[C@@H]4C)c3nc-2c(C(=O)N[C@@H]2C(=O)N[C@@H](C(C)C)C(=O)N3CCC[C@H]3C(=O)N(C)CC(=O)N(C)[C@@H](C(C)C)C(=O)O[C@@H]2C)c(N)c1=O", "cytotoxicity call": "inactive"}
{"compound": "CCCCCCCCCCCCCCCc1cccc(OCC)c1C(=O)Nc1ccc(Cl)c(C(F)(F)F)c1", "cytotoxicity call": "inactive"}
{"compound": "CCN(CC)CCOC(=O)c1ccc(N)cc1.Cl", "cytotoxicity call": "inactive"}
{"compound": "C[C@H](CO)N1C[C@H](C)[C@@H](CN(C)C)Oc2ccc(NS(C)(=O)=O)cc2CC1=O", "cytotoxicity call": "inactive"}
{"compound": "O=C(CN1CCOCC1)N[C@@H]1CC[C@@H](CCNC(=O)C2CCCCC2)O[C@H]1CO", "cytotoxicity call": "inactive"}
{"compound": "Cc1ccc(S(=O)(=O)Oc2ccc(/N=N/c3ccc(-c4ccc(/N=N/c5c(O)ccc6cc(S(=O)(=O)O)cc(S(=O)(=O)O)c56)c(C)c4)cc3C)cc2)cc1", "cytotoxicity call": "inactive"}
{"compound": "C[C@H](CO)N1C[C@H](C)[C@H](CN(C)Cc2ccccc2)Oc2c(NC(=O)CCCCCC(=O)Nc3ccccc3N)cccc2C1=O", "cytotoxicity call": "inactive"}
{"compound": "CCc1nc2ccc(C(=O)Nc3ccc(OC)c(OC)c3)cn2c1N(CC)Cc1cccc(Br)c1", "cytotoxicity call": "inactive"}
